Experimental data reported in publication PMC12061266.
Results are given in words; binding and its absence hold for the method and conditions named. In cells and extracts the contact can be indirect. Some results given as binding are weak or reduced against the parent protein; the word gives no strength. For part of these data: Sequences can lack the tags named with a protein. Each block holds one binder with its values, some of them ahead of it.

Experiments:
[1] = molecular target: T1, Flag-TRAF3IP3 deletion truncation 1-235 (human) (UniProt Q9Y228); test: co-IP; 293T cells co-transfected with Flag-TRAF3IP3 (wild type or truncations) and HA-STRN3, 48 h; RIPA lysis; anti-Flag or anti-HA overnight at 4 °C, Dynabeads protein G; also after thapsigargin (more binding) or 4-PBA (less binding) treatment of the cells
T1 sequence: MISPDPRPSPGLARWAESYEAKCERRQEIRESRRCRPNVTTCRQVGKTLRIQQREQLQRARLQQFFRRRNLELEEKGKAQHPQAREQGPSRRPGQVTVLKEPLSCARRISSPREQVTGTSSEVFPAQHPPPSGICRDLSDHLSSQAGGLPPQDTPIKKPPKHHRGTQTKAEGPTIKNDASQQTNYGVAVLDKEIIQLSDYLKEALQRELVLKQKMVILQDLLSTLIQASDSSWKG

[2] = molecular target: T2, Flag-TRAF3IP3 (wild-type TRAF3IP3) (human) (UniProt Q9Y228); test: as above
T2 sequence: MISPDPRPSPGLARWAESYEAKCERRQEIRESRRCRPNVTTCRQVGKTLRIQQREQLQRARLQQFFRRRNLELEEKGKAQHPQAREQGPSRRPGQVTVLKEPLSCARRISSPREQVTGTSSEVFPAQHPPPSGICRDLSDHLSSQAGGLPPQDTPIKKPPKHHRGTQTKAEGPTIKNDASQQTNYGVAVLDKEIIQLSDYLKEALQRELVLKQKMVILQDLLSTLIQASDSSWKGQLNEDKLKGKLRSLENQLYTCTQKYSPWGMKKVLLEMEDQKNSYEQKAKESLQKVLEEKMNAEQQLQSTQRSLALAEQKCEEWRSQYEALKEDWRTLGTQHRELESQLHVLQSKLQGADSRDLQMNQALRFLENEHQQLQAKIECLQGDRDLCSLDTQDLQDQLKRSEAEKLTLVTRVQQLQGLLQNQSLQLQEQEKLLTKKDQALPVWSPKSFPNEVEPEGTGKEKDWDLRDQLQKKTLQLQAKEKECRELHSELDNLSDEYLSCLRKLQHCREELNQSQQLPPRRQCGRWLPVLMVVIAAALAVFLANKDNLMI

[3] = molecular target: T3, Flag-TRAF3IP3 deletion truncation 521-551 (transmembrane domain) (human) (UniProt Q9Y228); test: as above
T3 sequence: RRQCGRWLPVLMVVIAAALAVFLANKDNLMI

[4] = molecular target: T4, Flag-TRAF3IP3 deletion truncation 236-450 (human) (UniProt Q9Y228); test: as above
T4 sequence: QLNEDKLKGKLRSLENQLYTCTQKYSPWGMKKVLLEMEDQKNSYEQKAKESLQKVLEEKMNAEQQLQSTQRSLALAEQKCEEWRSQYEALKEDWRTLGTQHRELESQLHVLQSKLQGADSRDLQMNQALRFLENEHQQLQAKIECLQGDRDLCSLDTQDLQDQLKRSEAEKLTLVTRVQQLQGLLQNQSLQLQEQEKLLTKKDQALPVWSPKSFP

[5] = molecular target: T5, Flag-TRAF3IP3 deletion truncation 451-520 (human) (UniProt Q9Y228); test: as above
T5 sequence: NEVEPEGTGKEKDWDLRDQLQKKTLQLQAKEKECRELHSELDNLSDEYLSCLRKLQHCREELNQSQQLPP

[6] = molecular target: T6, endogenous TRAF3IP3 (human (endogenous in A549, PC9, H1299)) (UniProt Q9Y228); test: co-IP; endogenous proteins, A549, PC9 and H1299 cell lysates
T6 sequence: T2 sequence

binding [1]: binds
binding [2]: binds
binding [3]: binds
binding [4]: binds
binding [5]: no binding
B1: HA-STRN3 (protein, UniProt Q13033 1-797)
chain: MDELAGGGGGGPGMAAPPRQQQGPGGNLGLSPGGNGAAGGGGPPASEGAGPAAGPELSRPQQYTIPGILHYIQHEWARFEMERAHWEVERAELQARIAFLQGERKGQENLKKDLVRRIKMLEYALKQERAKYHKLKYGTELNQGDLKMPTFESEETKDTEAPTAPQNSQLTWKQGRQLLRQYLQEVGYTDTILDVRSQRVRSLLGLSNSEPNGSVETKNLEQILNGGESPKQKGQEIKRSSGDVLETFNFLENADDSDEDEENDMIEGIPEGKDKHRMNKHKIGNEGLAADLTDDPDTEEALKEFDFLVTAEDGEGAGEARSSGDGTEWDKDDLSPTAEVWDVDQGLISKLKEQYKKERKGKKGVKRANRTKLYDMIADLGDDELPHIPSGIINQSRSASTRMTDHEGARAEEAEPITFPSGGGKSFIMGSDDVLLSVLGLGDLADLTVTNDADYSYDLPANKDAFRKTWNPKYTLRSHFDGVRALAFHPVEPVLVTASEDHTLKLWNLQKTVPAKKSASLDVEPIYTFRAHIGPVLSLAISSNGEQCFSGGIDATIQWWNMPSPSVDPYDTYEPNVLAGTLVGHTDAVWGLAYSGIKNQLLSCSADGTVRLWNPQEKLPCICTYNGDKKHGIPTSVDFIGCDPAHMVTSFNTGSAVIYDLETSQSLVILSSQVDSGLQSNNHINRVVSHPTLPVTITAHEDRHIKFFDNKTGKMIHSMVAHLDAVTSLAVDPNGIYLMSGSHDCSIRLWNLDSKTCVQEITAHRKKLDESIYDVAFHSSKAYIASAGADALAKVFV

binding [6]: binds
B2: endogenous STRN3 (protein, UniProt Q13033 1-797)
chain: B1 chain
